Values quoted from earlier work in PMC11006913.
The other results are listed elsewhere or left out.

Legend:
Settings in all cases: PBM; conditions not shown; double strand, one strand shown; scale: upbm affinity estimate (log intensity, higher = more binding, comparable within an allelic series)
[1] = target: PITX2 L100Q (Homo sapiens) (UniProt Q99697)
[2] = target: PITX2 R108H (Homo sapiens) (UniProt Q99697)
[3] = target: PITX2 R130W (Homo sapiens) (UniProt Q99697)
[4] = target: PITX2 T114P (Homo sapiens) (UniProt Q99697)
[5] = target: PROP1 R112Q (Homo sapiens) (UniProt O75360)
[6] = target: PROP1 R99Q (Homo sapiens) (UniProt O75360)

Row | Sequence | binding signal [1] | binding signal [2] | binding signal [3] | binding signal [4] | binding signal [5] | binding signal [6]
1 | CAGCCGCG [8-mer CAGCCGCG] | 8.13 | 7.96 | 7.96 | 8.02 |  | 
2 | ATAGATTA [8-mer ATAGATTA] | 10.9 | 9.31 | 8.9 | 9.45 |  | 
3 | GGGATTAC [8-mer GGGATTAC] | 11.3 | 9.28 | 8.37 | 9.88 |  | 
4 | AGATTAAA [8-mer AGATTAAA] | 11 | 9.34 | 8.76 | 9.54 |  | 
5 | AGGCCGCC [8-mer AGGCCGCC] | 7.99 | 7.99 | 7.93 | 7.96 |  | 
6 | ACCGCACC [8-mer ACCGCACC] | 8.2 | 8.09 | 7.99 | 8.15 |  | 
7 | CCCAGCCA [8-mer CCCAGCCA] | 8.34 | 8.16 | 8.06 | 8.19 |  | 
8 | CCCTAGGG [8-mer CCCTAGGG] | 8.49 | 8.04 | 8.07 | 8.14 |  | 
9 | GGAGATTA [8-mer GGAGATTA] | 11.2 | 9.4 | 8.62 | 9.75 |  | 
10 | TGGCTTAA [8-mer TGGCTTAA] | 10.8 | 9.09 | 8.63 | 9.29 |  | 
11 | AAATCCGC [8-mer AAATCCGC] | 9.97 | 8.51 | 8.22 | 8.61 |  | 
12 | AGATTAAC [8-mer AGATTAAC] | 11 | 9.36 | 8.53 | 9.56 |  | 
13 | GCGGATTA [8-mer GCGGATTA] | 11.3 | 9.43 | 8.4 | 9.8 |  | 
14 | GCCGGCCA [8-mer GCCGGCCA] | 8.36 | 8.11 | 8 | 8.18 |  | 
15 | CCGGCCCC [8-mer CCGGCCCC] | 8.27 | 7.93 | 7.64 | 7.91 |  | 
16 | AAGCTATA [8-mer AAGCTATA] | 9.71 | 8.79 | 8.6 | 8.75 |  | 
17 | AGAGATTA [8-mer AGAGATTA] | 11.2 | 9.56 | 8.65 | 9.88 |  | 
18 | GTGGATTA [8-mer GTGGATTA] | 11.4 | 9.51 | 8.6 | 9.84 |  | 
19 | GTGGCCAC [8-mer GTGGCCAC] | 8.38 | 8.15 | 8 | 8.23 |  | 
20 | CATAATCC [8-mer CATAATCC] | 11.1 | 9.36 | 8.51 | 9.7 |  | 
21 | GGACCGAC [8-mer GGACCGAC] | 8.33 | 8.17 | 8 | 8.11 |  | 
22 | CGAGTGCG [8-mer CGAGTGCG] | 8.17 | 8.32 | 8.4 | 8.19 |  | 

Row | Sequence | binding signal [1] | binding signal [2] | binding signal [3] | binding signal [4] | binding signal [5] | binding signal [6]
23 | GCCCGAAC [8-mer GCCCGAAC] | 8.17 | 8.18 | 8.04 | 8.09 |  | 
24 | GTAATCCA [8-mer GTAATCCA] | 11.1 | 9.21 | 8.65 | 9.58 |  | 
25 | TCGCTTAA [8-mer TCGCTTAA] | 9.67 | 8.75 | 8.53 | 8.74 |  | 
26 | AGGGATCA [8-mer AGGGATCA] | 10.4 | 8.76 | 8.44 | 9.02 |  | 
27 | CGCATGCG [8-mer CGCATGCG] | 8.27 | 8.25 | 8.12 | 8.29 |  | 
28 | CCGCCACG [8-mer CCGCCACG] | 8.35 | 8.15 | 8.05 | 8.12 |  | 
29 | GGTTTAAC [8-mer GGTTTAAC] | 10.1 | 8.69 | 8.53 | 8.82 |  | 
30 | AGAATTTA [8-mer AGAATTTA] | 9.51 | 8.8 | 8.55 | 8.74 |  | 
31 | CTAATCCC [8-mer CTAATCCC] | 11.7 | 9.87 | 8.52 | 10.5 |  | 
32 | ATAATCCC [8-mer ATAATCCC] | 11.5 | 9.76 | 8.49 | 10.2 |  | 
33 | GCCTCCCA [8-mer GCCTCCCA] | 8.22 | 8.05 | 7.83 | 8.12 |  | 
34 | AATAATCT [8-mer AATAATCT] | 10.9 | 9.34 | 8.84 | 9.41 |  | 
35 | CCGGACCG [8-mer CCGGACCG] | 8.24 | 7.9 | 7.72 | 7.96 | 10.9 | 10.9
36 | AGGGATTA [8-mer AGGGATTA] | 11.9 | 9.98 | 8.55 | 10.7 |  | 
37 | CCCGTGTC [8-mer CCCGTGTC] | 8.28 | 8.1 | 7.94 | 8.07 |  | 
38 | CCGGTTGC [8-mer CCGGTTGC] | 8.38 | 8.12 | 8.06 | 8.26 |  | 
39 | CAAATACC [8-mer CAAATACC] | 9.5 | 8.64 | 8.57 | 8.69 |  | 
40 | GAGGTTGC [8-mer GAGGTTGC] | 8.04 | 8.04 | 8.05 | 8.08 |  | 
41 | CCCAGGCC [8-mer CCCAGGCC] | 8.1 | 7.91 | 7.74 | 7.93 |  | 
42 | CGCTCCGC [8-mer CGCTCCGC] | 8.38 | 8.05 | 7.86 | 8.06 |  | 
43 | AGATTCAT [8-mer AGATTCAT] | 9.12 | 8.64 | 8.61 | 8.63 |  | 
44 | AGATTAAT [8-mer AGATTAAT] | 11.1 | 9.54 | 8.71 | 9.71 |  | 
